Data on 26 compounds can be found in the antibiotic and cytotoxicity screens of Wong et al. (2023).

Some of the results follow.

The subject of one assay is HSkMC. Put plainly: cytotoxicity call (relative viability < 0.9). Particulars: 10 µM.
Another assay has as its system HepG2. Put plainly: cytotoxicity call (relative viability < 0.9). As to conditions: 10 µM.
The subject of a further assay is S. aureus RN4220. Nature of the assay: growth inhibition call (relative growth <= 0.2). Particulars: 50 µM.

Consider `Cc1ccc(S(=O)(=O)N(C)C[C@@H]2Oc3ccc(NS(=O)(=O)c4ccccc4)cc3CC(=O)N([C@H](C)CO)C[C@@H]2C)cc1`, for which the cytotoxicity call with HSkMC and in the assay on HepG2 was “inactive” each time. In the assay on S. aureus RN4220, the growth inhibition call is “inactive”.

With `O=S(=O)(Nn1cnnc1)c1ccccc1`, the cytotoxicity call with HSkMC and in the assay on HepG2 was “inactive” throughout. Besides, the growth inhibition call in the assay with S. aureus RN4220 was “inactive”.

`C[C@H]1CN([C@@H](C)CO)C(=O)c2cccc(NC(=O)c3nc4ccccc4s3)c2O[C@@H]1CN(C)Cc1ccc(-c2ccccc2)cc1`: the cytotoxicity call with HSkMC and in the assay with HepG2 was “inactive” throughout. Moreover, the growth inhibition call with S. aureus RN4220 is “inactive”.

`Cc1noc(C)c1NC(=O)N(C)C[C@H]1Oc2ccc(NS(=O)(=O)c3cn(C)cn3)cc2CC(=O)N([C@@H](C)CO)C[C@@H]1C`: the cytotoxicity call with HSkMC and in the assay on HepG2 was “inactive” in each case. Further, in the assay with S. aureus RN4220, the growth inhibition call was “inactive”.

For the compound `O=C(O)C[C@@H]1C=C[C@@H](NC(=O)c2ccncc2)[C@H](CO)O1`, the cytotoxicity call in the assay with HSkMC and in the assay with HepG2 was “inactive” each time. In addition, the growth inhibition call in the assay with S. aureus RN4220 is “inactive”.

Take `C[C@@H]1CN([C@@H](C)CO)S(=O)(=O)c2ccc(C#CC3CC3)cc2O[C@@H]1CN(C)C(=O)c1cccc(F)c1`: the cytotoxicity call with HSkMC and with HepG2 was “inactive” each time. Moreover, in the assay with S. aureus RN4220, the growth inhibition call is “inactive”.

In the case of `CNC[C@H]1Oc2ccc(NC(=O)Cn3cnnn3)cc2C(=O)N([C@@H](C)CO)C[C@H]1C`, the cytotoxicity call with HSkMC and in the assay with HepG2 was “inactive” each time. Further, the growth inhibition call with S. aureus RN4220 was “inactive”.

With `COCC(=O)N1C[C@@H](C)[C@@H](OC)CN(C)C(=O)c2cc(NC(=O)c3ccc(F)cc3)ccc2OC[C@@H]1C`, the cytotoxicity call in the assay with HSkMC and in the assay with HepG2 was “inactive” throughout. Besides, the growth inhibition call with S. aureus RN4220 was “inactive”.

With `C[C@@H]1CN([C@@H](C)CO)S(=O)(=O)c2ccc(C#C[C@@H](C)O)cc2O[C@H]1CN(C)C`, the cytotoxicity call in the assay on HSkMC and in the assay on HepG2 was “inactive” throughout. The growth inhibition call with S. aureus RN4220 was “inactive”.

Turning to `O=C(C=Cc1ccccc1)c1ccc(O)cc1`, the cytotoxicity call with HSkMC is “inactive”. Besides, the cytotoxicity call with HepG2 is “active”. In addition, in the assay with S. aureus RN4220, the growth inhibition call is “inactive”.

As for `CO[C@H](CN(C)S(=O)(=O)c1ccc(F)cc1)[C@@H](C)CN([C@H](C)CO)S(=O)(=O)c1cccc(Cl)c1`, the cytotoxicity call with HSkMC and with HepG2 was “inactive” each time. Besides, in the assay with S. aureus RN4220, the growth inhibition call was “inactive”.

For `O=C(C[C@@H]1C=C[C@@H](NC(=O)Nc2cc(F)ccc2F)[C@@H](CO)O1)NCCCN1CCOCC1`, the cytotoxicity call with HSkMC and in the assay on HepG2 was “inactive” in each case. Moreover, the growth inhibition call with S. aureus RN4220 is “inactive”.

For the compound `C[C@H]1CN([C@@H](C)CO)C(=O)c2cc(C#CCN(C)C)cnc2O[C@@H]1CN(C)C(=O)CN1CCOCC1`, the cytotoxicity call in the assay with HSkMC and in the assay on HepG2 was “inactive” each time. The growth inhibition call in the assay with S. aureus RN4220 was “inactive”.

Regarding `Cc1ccc(S(=O)(=O)N(C)C[C@@H]2OCCCC[C@@H](C)Oc3ccc(NC(=O)Cc4ccccc4)cc3C(=O)N([C@@H](C)CO)C[C@H]2C)cc1`, the cytotoxicity call in the assay on HSkMC and in the assay on HepG2 was “inactive” throughout. Further, the growth inhibition call in the assay on S. aureus RN4220 is “inactive”.

Consider `COc1ccccc1CNC(=O)C[C@H]1C[C@@H]2c3cc(NS(=O)(=O)c4ccc(F)cc4)ccc3O[C@@H]2[C@@H](CO)O1`, for which the cytotoxicity call in the assay with HSkMC and in the assay on HepG2 was “inactive” throughout. For the same compound, the growth inhibition call with S. aureus RN4220 is “inactive”.

As to `C[C@@H]1CN([C@@H](C)CO)C(=O)Cc2cc(NC(=O)Nc3ccccc3)ccc2O[C@@H]1CN(C)S(=O)(=O)c1cn(C)cn1`, the cytotoxicity call in the assay with HSkMC and in the assay with HepG2 was “inactive” each time. Also, the growth inhibition call with S. aureus RN4220 is “inactive”.

As to `Cc1ccc(S(=O)(=O)N(C)C[C@@H]2Oc3ccc(NS(C)(=O)=O)cc3C(=O)N([C@H](C)CO)C[C@H]2C)cc1`, the cytotoxicity call with HSkMC and in the assay on HepG2 was “inactive” throughout. In addition, the growth inhibition call with S. aureus RN4220 was “inactive”.

`CC(CO)(CO)NC(=O)NC1CCCCC1`: the cytotoxicity call in the assay with HSkMC and with HepG2 was “inactive” each time. Also, the growth inhibition call in the assay on S. aureus RN4220 was “inactive”.

On to `O=C1NCCN1CCNC(=S)NC1CC1`, for which the cytotoxicity call with HSkMC and in the assay with HepG2 was “inactive” in each case. Also, the growth inhibition call in the assay with S. aureus RN4220 was “inactive”.

`COc1ccc(CN(C)C[C@H]2OCCCC[C@@H](C)Oc3ccc(NC(=O)Nc4cccc5ccccc45)cc3C(=O)N([C@@H](C)CO)C[C@@H]2C)cc1`: the cytotoxicity call in the assay on HSkMC and in the assay on HepG2 was “inactive” in each case. In addition, in the assay with S. aureus RN4220, the growth inhibition call is “inactive”.

Take `C[C@@H]1CCCCO[C@H](CN(C)C(=O)CCC(F)(F)F)[C@@H](C)CN([C@@H](C)CO)C(=O)c2cc(NS(=O)(=O)c3ccc(F)cc3)ccc2O1`: the cytotoxicity call with HSkMC and with HepG2 was “inactive” throughout. In addition, the growth inhibition call with S. aureus RN4220 was “inactive”.

Regarding `C[C@@H]1CN([C@@H](C)CO)C(=O)c2cc(NS(=O)(=O)c3ccc(Cl)cc3)ccc2O[C@@H]1CN(C)Cc1ccc(Oc2ccccc2)cc1`, the cytotoxicity call in the assay on HSkMC and in the assay with HepG2 was “active” throughout. For the same compound, in the assay with S. aureus RN4220, the growth inhibition call is “inactive”.

In the case of `O=C(O)C[C@H]1CC[C@H]2[C@@H](COC[C@@H](O)CN2S(=O)(=O)c2ccc(F)cc2)O1`, the cytotoxicity call in the assay with HSkMC and in the assay with HepG2 was “inactive” in each case. For the same compound, in the assay on S. aureus RN4220, the growth inhibition call is “inactive”.

On to `C[C@@H]1CCCCO[C@@H](CN(C)C(=O)Nc2cccc3ccccc23)[C@H](C)CN([C@@H](C)CO)C(=O)c2cc(NS(=O)(=O)c3ccccc3)ccc2O1`, for which the cytotoxicity call in the assay on HSkMC (human skeletal muscle cells) and in the assay on HepG2 was “inactive” throughout. Besides, the growth inhibition call in the assay with S. aureus RN4220 is “inactive”.

In the case of `COc1ccc(NC(=O)Nc2ccc3c(c2)C(=O)N([C@@H](C)CO)C[C@H](C)[C@H](CN(C)S(=O)(=O)c2ccccc2)OCCCC[C@@H](C)O3)cc1`, the cytotoxicity call with HSkMC and in the assay with HepG2 was “inactive” throughout. The growth inhibition call in the assay on S. aureus RN4220 is “inactive”.

`C[C@H]1CN([C@@H](C)CO)C(=O)c2cc(NC(=O)Nc3ccccc3)ccc2O[C@@H]1CN(C)S(C)(=O)=O`: the cytotoxicity call with HSkMC and in the assay with HepG2 was “inactive” in each case. Besides, the growth inhibition call with S. aureus RN4220 is “inactive”.
